# Laboratory results from PubChem BioAssay AID1460 (National Center for Advancing Translational Sciences (NCATS), 2008).
# Hit rate of the full screen: of about 270,000 compounds, about 5,800 (2.1%) were called active. The inconclusive results got no clear call from the source; some entries with a clear call stand among them for comparison. The call rests on the fitted dose curve; in most records, active means well fitted inhibition curve with a large enough effect; inconclusive means small, poorly fitted or top-dose-only effect; inactive means flat fitted curve, though single readings scatter. Potencies of inconclusive entries are doubtful fits and often do not repeat.
# Molecular target: Microtubule-associated protein tau (Homo sapiens) (UniProt P10636)
# Sequence of UniProt P10636 (P10636 whole entry, looked up): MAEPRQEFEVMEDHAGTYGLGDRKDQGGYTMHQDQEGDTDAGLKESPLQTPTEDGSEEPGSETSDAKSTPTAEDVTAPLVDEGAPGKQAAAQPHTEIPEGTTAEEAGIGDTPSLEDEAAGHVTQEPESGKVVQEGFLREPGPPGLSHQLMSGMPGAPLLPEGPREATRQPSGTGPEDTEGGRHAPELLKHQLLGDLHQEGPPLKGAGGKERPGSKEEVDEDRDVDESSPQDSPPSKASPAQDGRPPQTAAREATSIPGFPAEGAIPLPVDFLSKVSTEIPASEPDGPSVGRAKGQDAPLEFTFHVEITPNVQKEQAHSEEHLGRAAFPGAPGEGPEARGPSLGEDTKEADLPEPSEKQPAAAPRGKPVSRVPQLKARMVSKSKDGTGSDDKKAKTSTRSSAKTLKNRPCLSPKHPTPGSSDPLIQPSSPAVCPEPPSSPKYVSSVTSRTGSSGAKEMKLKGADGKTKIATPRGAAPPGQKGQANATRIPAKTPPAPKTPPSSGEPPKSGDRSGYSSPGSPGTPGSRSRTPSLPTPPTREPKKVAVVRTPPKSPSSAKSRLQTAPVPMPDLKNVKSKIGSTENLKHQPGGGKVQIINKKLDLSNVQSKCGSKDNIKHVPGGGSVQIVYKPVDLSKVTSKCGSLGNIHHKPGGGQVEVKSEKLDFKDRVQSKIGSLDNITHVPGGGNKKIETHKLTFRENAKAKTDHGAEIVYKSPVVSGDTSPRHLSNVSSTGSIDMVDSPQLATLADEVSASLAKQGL
# Test: qHTS for Inhibitors of Tau Fibril Formation, Thioflavin T Binding; further: nearly all actives have a fitted effect of over 55% in size
# Conditions: recombinant tau K18 P301L (four-repeat tau fragment), heparin-induced fibrillization, ThT fluorescence; series mostly up to 57.4 µM; activity, negative = inhibition: at the top concentration
# In short: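 Tau K18 P301L fragment (15 uM unlabeled plus 0.24 uM Alexa 594-labeled) in 100 mM sodium acetate pH 7 with compound, fibrillization induced by 20 uM heparin for 6 hr at 37 C. Thioflavin T (30 uM) added, fluorescence read after 1 hr (ex 450, em 510 nm).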
# On the % scale 0 is the no-effect control and ±100 the full control effect; potency means the concentration at half of the fitted maximal effect; tags describe the fitted curve by direction and shape.
SMILES,Potency,"activity, negative = inhibition"
NC(=O)c1c(NC(=O)c2noc3c2CCCC3)sc2c1CCCC2,active: 28.2 µM,–
Cc1ccc(Oc2cc(C)nc(-c3ccccc3O)n2)cc1,"inconclusive: 20 µM [inhibitor, partial curve]",–
CCOc1ccc(CCNC(=O)C2CCCN(c3nnc(C)c4c(C)n(-c5ccccc5)nc34)C2)cc1 (stereo not given),"inconclusive: 7.94 µM [inhibitor, partial curve]",–
CC(Oc1ccc(Cl)cc1Cl)C(=O)OCn1nnc2ccccc2c1=O (stereo not given),"inconclusive: 7.94 µM [inhibitor, full curve, poor fit]",–
Cc1c(C(=O)Nc2c(F)cccc2F)sc2ncnc(N3CCN(c4ccccc4)CC3)c12,"inconclusive: 39.8 µM [inhibitor, partial curve]",–
O=C(N/N=C/c1ccc([N+](=O)[O-])o1)c1cc(-c2cccc(Br)c2)nc2ccccc12,"inconclusive: 15.8 µM [inhibitor, partial curve]",–
CC(C)COc1ccc(C(=O)NCC2OCCc3ccccc32)cc1 (stereo not given),"inconclusive: 4.47 µM [inhibitor, full curve, poor fit]",–
Cc1ccc(O)c(NC(=O)/C=C/C(=O)O)c1,"inconclusive: 17.8 µM [inhibitor, partial curve]",–
CCOC(=O)C1=C(c2ccccc2)N=c2s/c(=C\c3ccco3)c(=O)n2C1c1cccs1 (stereo not given),"inconclusive: 15.8 µM [inhibitor, partial curve]",–
O=C(O)CCCCCN1C(=O)/C(=C\c2cn(-c3ccccc3)nc2-c2cccs2)SC1=S,active: 14.1 µM,–
CCCCN(C)CCCNC(=O)c1ccc(N2CCCC2=O)cc1,–,inactive: -4.61%
O=c1c(C(c2ccc(O)cc2)c2c(O)nc3n(c2=O)CCCS3)c(O)nc2n1CCCS2,"inconclusive: 4.47 µM [inhibitor, partial curve]",–
COc1cc(Nc2nc(-c3ccccc3)c3cc(C)ccc3n2)cc(OC)c1OC,active: 15.8 µM,–
COc1cc2oc(-c3ccc(O)cc3)cc(=O)c2c(O)c1OC,"inconclusive: 39.8 µM [inhibitor, single point]",–
CC(=O)c1ccc(NS(=O)(=O)c2c(C)cc(C)cc2C)cc1,"inconclusive: 14.1 µM [inhibitor, partial curve]",–
CCn1c2ccccc2c2cc(NC(=O)COc3cc(C)c(Cl)c(C)c3)ccc21,"inconclusive: 2.51 µM [inhibitor, full curve]",–
COc1ccc(OC)c(-n2c(-c3ccc(O)cc3O)n[nH]c2=S)c1,"inconclusive: 6.31 µM [inhibitor, partial curve]",–
COC(=O)[C@@]1(Cc2ccccc2)[C@H]2c3cc(C(=O)N4CCCC4)n(CC4CC4)c3C[C@H]2CN1C(=O)c1ccccc1,"inconclusive: 0.562 µM [inhibitor, full curve]",–
COc1ccc(N2CC(C(=O)NCc3cccnc3)CC2=O)cc1 (stereo not given),–,inactive: -8.88%
COc1ccc2oc(=O)c(C(=O)NCCc3c(C)[nH]c4c(C)cccc34)cc2c1,"inconclusive: 7.94 µM [inhibitor, partial curve]",–
Cc1ccc(Sc2c(C=O)c3ccccc3n2C)cc1,"inconclusive: 20 µM [inhibitor, partial curve]",–
CCOc1cc(CN2CCCC(CNC(=O)c3ccc(F)cc3)C2)ccc1OC (stereo not given),–,inactive: -3.01%
Cc1ccc(-c2nnn(CC(=O)N(Cc3ccco3)C(C(=O)NC(C)(C)C)c3cccs3)n2)o1 (stereo not given),–,inactive: -18%
COc1ccc(/C=C\c2nc(=O)c3ccccc3o2)cc1,"inconclusive: 14.1 µM [inhibitor, partial curve]",–

SMILES,Potency,"activity, negative = inhibition"
COC(=O)c1cc(C)nc2c1c(=O)nc(SCc1cc(C)ccc1C)n2C1CC1,"inconclusive: 7.94 µM [inhibitor, partial curve]",–
CC1CCc2c(C(=O)NCC3CCCO3)csc2C1 (stereo not given),–,inactive: 7.84%
O=C(O)c1ccc(COc2ccc3ccccc3c2/C=C2/NC(=O)N(c3ccccc3)C2=O)cc1,"inconclusive: 25.1 µM [inhibitor, single point]",–
CCOCCCNC(=O)c1c(NC(=O)Cc2coc3c(C)c(C)ccc23)sc2c1CCC2,"inconclusive: 7.08 µM [inhibitor, full curve, poor fit]",–
Cc1cc(C)cc(N(C)S(=O)(=O)c2nnc(NC(=O)COc3ccc(C)c(C)c3)s2)c1,–,inactive: 3.53%
CCOC(=O)c1cnc(-n2nc(C)cc2C)nc1NCc1ccccc1,"inconclusive: 25.1 µM [inhibitor, partial curve]",–
CC(=O)c1ccc(NC(=O)c2cccc(NC(=O)N3CCSc4ncccc43)c2)cc1,–,inactive: 16.7%
COc1cc(C=O)ccc1OCCCOc1ccccc1[N+](=O)[O-],"inconclusive: 25.1 µM [inhibitor, single point]",–
CC1CC(C)CN(C(=S)Nc2ccc3nc4n(c(=O)c3c2)CCCCC4)C1 (stereo not given),–,inactive: 4.61%
CCCCS(=O)(=O)N1CN(S(=O)(=O)CCCC)C2NC(=O)NC21 (stereo not given),"inconclusive: 7.08 µM [inhibitor, single point]",–
Cc1cccc(NC(=O)C2CCC(CNS(=O)(=O)c3ccc4c(c3)CCCC(=O)N4)CC2)c1C (stereo not given),–,inactive: -12.7%
CCN1CCOC(=O)C1CC(=O)Nc1ccccc1C(F)(F)F (stereo not given),"inconclusive: 11.2 µM [inhibitor, partial curve]",–
O=c1/c(=C\c2cc([N+](=O)[O-])cc([N+](=O)[O-])c2O)sc2nc3ccccc3n12,active: 5.01 µM,–
CCOC(=O)/C(C#N)=C\c1ccc(N2CCN(C/C=C/c3ccccc3)CC2)cc1,"inconclusive: 15.8 µM [inhibitor, partial curve, poor fit]",–
O=C(Nc1ccccc1)c1ccc2nc(-c3ccco3)c(-c3ccco3)nc2c1,"inconclusive: 39.8 µM [inhibitor, single point]",–
COc1cc(O)cc(O)c1C(=O)/C=C/c1ccccc1,"inconclusive: 22.4 µM [inhibitor, single point]",–
COCCCN1CCc2nc(SCC(=O)Nc3ccc(C)c(Cl)c3)[nH]c(=O)c2C1,–,inactive: -13.9%
Cc1ccc(S(=O)(=O)NCC(=O)N2CCC(C)CC2)cc1,–,inactive: -5.65%
CCOc1ccc(CC(=O)NNC(=S)Nc2ccc(OC)c(OC)c2)cc1,–,inactive: -6.71%
Cc1cccc(C(=O)NC2(C(F)(F)F)N=C(c3ccccc3)N(Cc3ccccc3)C2=O)c1 (stereo not given),"inconclusive: 3.55 µM [activator, single point]",–
CCc1ccccc1Nc1nn2c(=O)c3ccc(C(=O)NCCc4ccccc4)cc3nc2s1,"inconclusive: 0.708 µM [inhibitor, full curve, poor fit]",–
CC1CCN(c2c(NCc3ccc(C(=O)NCc4ccco4)cc3)c(=O)c2=O)CC1,–,inactive: -6.01%
Cc1nc2cc(C(=O)N3CCc4ccccc43)ccc2n1-c1ccc(F)c(F)c1,–,inactive: -6.56%
COC(=O)C1CCN(Cc2cn(-c3ccccc3)nc2-c2ccc3c(c2)OCO3)CC1,–,inactive: -10.9%

SMILES,Potency,"activity, negative = inhibition"
[O-]/[N+](=C\c1ccncc1)c1ccccc1,"inconclusive: 20 µM [inhibitor, partial curve]",–
COc1ccc(-c2cc(C(=O)NCCc3ccccc3)no2)cc1OC,"inconclusive: 3.16 µM [inhibitor, full curve, poor fit]",–
Cc1cc(C)c2[nH]c(=O)c(CN(Cc3cccs3)C(=S)NCc3ccco3)cc2c1,–,inactive: -4.64%
COc1ccc(N2CCN(CC(O)COc3ccccc3C(C)(C)C)CC2)cc1 (stereo not given),"inconclusive: 10 µM [inhibitor, partial curve]",–
Cc1cccc(C(=O)Nc2ccc(-c3nc4ccccc4s3)c(C)c2)c1,"inconclusive: 0.631 µM [inhibitor, full curve, poor fit]",–
O=C(NC(=S)N1CCCc2ccccc21)c1ccc(Cl)cc1,–,inactive: -0.634%
CCCCCn1c(SCCC(C)C)nc2c1c(=O)[nH]c(=O)n2C,"inconclusive: 44.7 µM [inhibitor, single point]",–
COc1c(Cl)cc(Cl)cc1CNCCO,–,inactive: 5.48%
O=c1[nH]c2ccc(N=Cc3c(O)ccc4cc(Br)ccc34)cc2[nH]1,"inconclusive: 2.24 µM [inhibitor, partial curve]",–
C=COC(=O)CSc1snc(SCC(=O)OC)c1C#N,"inconclusive: 15.8 µM [inhibitor, partial curve]",–
CCn1c(-c2cc(-c3ccc(OC(C)C)cc3)nc3ccccc23)n[nH]c1=S,"inconclusive: 35.5 µM [inhibitor, partial curve]",–
CCc1ccccc1NC(=O)CSc1nnc(-c2cc(OC)c(OC)c(OC)c2)o1,–,inactive: 18.6%
CCOc1cc(/C=C2/C(=N)N3OC(C)=CC3=NC2=O)ccc1OC(=O)c1ccco1,"inconclusive: 15.8 µM [inhibitor, partial curve]",–
COc1cc(OC)c2c(c1)C(=O)OC2,–,inactive: -3.81%
O=C(Nc1ccc(N2CCN(Cc3ccccc3Cl)CC2)cc1)c1cccnc1,"inconclusive: 8.91 µM [inhibitor, partial curve]",–
Cc1cccc(C)c1NC(=O)CN1C(=O)NC(C)(CCc2ccccc2)C1=O (stereo not given),–,inactive: 1.16%
C/C(Cl)=C\COc1cc(C)nc2c(Br)cccc12,"inconclusive: 10 µM [inhibitor, partial curve]",–
O=C(COc1ccc(Cl)cc1)Nc1cc(-c2ccccc2)no1,"inconclusive: 0.794 µM [inhibitor, full curve]",–
c1ccc(CN2CCC3(CCc4ccccc43)CC2)cc1,inactive,–
Cc1cc(N2CCCC2)ccc1/C=C1\NC(=S)N(C)C1=O,"inconclusive: 2.51 µM [inhibitor, full curve]",–
Cc1cc2nn(-c3ccc(Cl)cc3)nc2cc1NC(=O)C(C)C,–,inactive: 4.08%
CC(=O)Nc1ccc(NC2=C/C(=N/S(=O)(=O)c3cccs3)c3ccccc3C2=O)cc1,"inconclusive: 2.82 µM [inhibitor, full curve]",–
